The record followed here is patent US20250270341A1 (Alector, published 2025).

Experiment [1] deals with T1, Full length human CD98hc on CHO cells (human).
T1 construct: CHO cells stably overexpressing it; also called CHO-human CD98hc; CHO-huCD98hc
T1 chain: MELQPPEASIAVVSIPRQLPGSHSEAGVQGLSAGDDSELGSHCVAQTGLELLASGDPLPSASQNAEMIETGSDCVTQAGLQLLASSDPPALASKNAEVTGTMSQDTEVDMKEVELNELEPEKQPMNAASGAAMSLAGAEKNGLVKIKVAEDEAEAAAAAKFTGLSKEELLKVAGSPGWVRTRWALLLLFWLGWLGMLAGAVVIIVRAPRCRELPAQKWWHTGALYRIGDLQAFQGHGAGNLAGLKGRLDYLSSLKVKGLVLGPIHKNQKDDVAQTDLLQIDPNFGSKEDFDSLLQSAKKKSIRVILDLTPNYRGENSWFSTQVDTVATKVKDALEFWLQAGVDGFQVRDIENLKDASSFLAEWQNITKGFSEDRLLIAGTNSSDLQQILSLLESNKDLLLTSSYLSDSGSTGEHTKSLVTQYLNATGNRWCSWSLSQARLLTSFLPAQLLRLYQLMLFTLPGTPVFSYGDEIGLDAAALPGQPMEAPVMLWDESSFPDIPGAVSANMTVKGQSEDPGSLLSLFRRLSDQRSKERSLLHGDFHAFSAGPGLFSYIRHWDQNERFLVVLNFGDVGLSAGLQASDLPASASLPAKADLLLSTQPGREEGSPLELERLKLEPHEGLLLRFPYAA
In words: FACS. The method, then: (§1) Purified 2+1 anti-CD98hc bispecific antibodies were screened for binding to human and cyno CD98hc by ELISA as in Example 6. Purified 2+1 bispecific antibodies were screened at concentrations ranging from 1-30 μg/mL. ELISA binding to human and cyno CD98 and control cyno TfR AVI-His tagged proteins as a ratio to secondary antibody alone were calculated, and values are listed in Table 10A. Purified 2+1 bispecific antibodies were also screened for their ability to bind CHO cells overexpressing human or mouse CD98hc or cells endogenously expressing human CD98hc by FACS. […] Data was acquired on a FACS Canto (BD Biosciences). The ratio of binding to endogenously expressing human brain endothelial cells over secondary only is also in Table 12B. 47 out of 94 of the 2+1 anti-CD98hc bispecific antibodies screened were positive by ELISA with signal at least 5-fold higher than the secondary alone, and 16 were ELISA and FACS positive which FACS binding increased 3-fold or more compared to non-expressing cells.
(In general: In flow cytometry, cells or beads pass a laser one at a time.)

The target in experiment [2] is T2, human CD98hc endogenously expressed on HCMEC/D3 cells (human).
T2 construct: human brain endothelial cell line
T2 chain: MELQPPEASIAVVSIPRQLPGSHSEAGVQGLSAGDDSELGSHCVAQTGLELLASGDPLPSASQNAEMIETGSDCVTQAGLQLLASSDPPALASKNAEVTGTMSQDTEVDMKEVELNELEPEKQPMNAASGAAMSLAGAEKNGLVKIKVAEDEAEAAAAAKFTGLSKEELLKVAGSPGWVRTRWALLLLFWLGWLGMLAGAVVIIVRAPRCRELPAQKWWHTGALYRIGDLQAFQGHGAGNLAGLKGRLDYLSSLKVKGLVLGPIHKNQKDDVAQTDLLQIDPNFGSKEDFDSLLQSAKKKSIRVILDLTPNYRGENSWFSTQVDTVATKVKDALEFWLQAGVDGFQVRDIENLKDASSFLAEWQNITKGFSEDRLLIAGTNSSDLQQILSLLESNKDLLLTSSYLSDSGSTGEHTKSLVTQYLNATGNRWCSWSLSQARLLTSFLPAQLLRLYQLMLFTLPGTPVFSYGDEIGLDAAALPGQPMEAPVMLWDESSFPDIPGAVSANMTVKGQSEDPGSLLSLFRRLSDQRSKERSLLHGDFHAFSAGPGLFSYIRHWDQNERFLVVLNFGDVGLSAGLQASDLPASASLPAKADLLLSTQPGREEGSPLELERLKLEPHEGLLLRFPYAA
In words: FACS. The method, then: as §1

B1: CD98hc.05.006 (2+1 bispecific antibody) (bispecific antibody)
heavy 1: EVRLLESGGGLVQPGGSLRLSCAASGFTFSNYAMGWVRQAPGKGLEWVSAISGSGGSTYYADSVKGRFTTSRDDSKNALYLQMNSLRAEDTAVYYCARGGPGWYAADVWGQGTTVTVSSASTKGPSVFPLAPSSKSTSGGTAALGCLVKDYFPEPVTVSWNSGALTSGVHTFPAVLQSSGLYSLSSVVTVPSSSLGTQTYICNVNHKPSNTKVDKKV[here human IgG1 Fc with changes without letters]GGGGSGGGGSGGGGSEVKLVESGGNLVQPGGSLKLSCAASGFTFSGYSMSWVRQTPDKRLEWVAYIGNGGDSTYYPYTVKGRFTISRDNAKNTLYLQMNSLKSEDSAMYYCARQYVNYPFFDYWGQGTTLTVSSGGSEGKSSGSGSESKSTGGSDIVMSQSPSSLTVSVGAKIILGCKSSQSLLYSGNQKNYLAWYQQKPGQSPKLLIYWASTRESGVPDRFTGSGSGTDFTLTISSVKAEDVAVYYCQQYYTYPPAFGAGTKLEIK
heavy 2: EVRLLESGGGLVQPGGSLRLSCAASGFTFSNYAMGWVRQAPGKGLEWVSAISGSGGSTYYADSVKGRFTTSRDDSKNALYLQMNSLRAEDTAVYYCARGGPGWYAADVWGQGTTVTVSS[here human IgG1 constant region with changes without letters]
light: DIQMTQSPSSLSASVGDRVTITCRASQSISSYLNWYQQKPGKAPKLLIYAASSLQSGVPSRFSGSGSGTDFTLTISSLQPEDFATYYCQQADLPAFAFGGGTKVEIKRTVAAPSVFIFPPSDEQLKSGTASVVCLLNNFYPREAKVQWKVDNALQSGNSQESVTEQDSKDSTYSLSSTLTLSKADYEKHKVYACEVTHQGLSSPVTKSFNRGEC
As for B1, the “MFI ratio CHO huCD98/CHO parental” value in experiment [1] worked out at 31. Also, the “MFI ratio HCMEC/2nd ab only” value in experiment [2] came out at 603.

B2: CD98hc.05.052 (2+1 bispecific antibody) (bispecific antibody)
heavy 1: EVRLLESGGGLVQPGGSLRLSCAASGFTFSNYAMGWVRQAPGKGLEWVSAISGSGGSTYYADSVKGRFTTSRDDSKNALYLQMNSLRAEDTAVYYCARGGPGWYAADVWGQGTTVTVSSASTKGPSVFPLAPSSKSTSGGTAALGCLVKDYFPEPVTVSWNSGALTSGVHTFPAVLQSSGLYSLSSVVTVPSSSLGTQTYICNVNHKPSNTKVDKKV[here human IgG1 Fc with changes without letters]GGGGSGGGGSGGGGSDMQLQESGPGLVKPSQSLSLTCTVTGYSITSDYAWNWIRQFPGNKLEWMGFISYSGTTSYTPSLKRRISITRDTSKNQFFLRLNSVTPEDTATYYCAKSAFYGNVWFAYWGQGTLVTVSSGGSEGKSSGSGSESKSTGGSQFVLTQSPAIMSASPGEKVTISCSASSSVSYMFWYQQKPGSSPKPWISHTSNLASGVPARFSGSGSGTSYSLTISNMEAEDAATYYCQQFHDYPWTFGGGTKLEIK
heavy 2: EVRLLESGGGLVQPGGSLRLSCAASGFTFSNYAMGWVRQAPGKGLEWVSAISGSGGSTYYADSVKGRFTTSRDDSKNALYLQMNSLRAEDTAVYYCARGGPGWYAADVWGQGTTVTVSS[here human IgG1 constant region with changes without letters]
light: DIQMTQSPSSLSASVGDRVTITCRASQSISSYLNWYQQKPGKAPKLLIYAASSLQSGVPSRFSGSGSGTDFTLTISSLQPEDFATYYCQQADLPAFAFGGGTKVEIKRTVAAPSVFIFPPSDEQLKSGTASVVCLLNNFYPREAKVQWKVDNALQSGNSQESVTEQDSKDSTYSLSSTLTLSKADYEKHKVYACEVTHQGLSSPVTKSFNRGEC
On to B2, for which the “MFI ratio CHO huCD98/CHO parental” value in experiment [1] was 24. For the same molecule, in experiment [2], the “MFI ratio HCMEC/2nd ab only” value is 272.

B3: CD98hc.05.007 (2+1 bispecific antibody) (bispecific antibody)
heavy 1: EVRLLESGGGLVQPGGSLRLSCAASGFTFSNYAMGWVRQAPGKGLEWVSAISGSGGSTYYADSVKGRFTTSRDDSKNALYLQMNSLRAEDTAVYYCARGGPGWYAADVWGQGTTVTVSSASTKGPSVFPLAPSSKSTSGGTAALGCLVKDYFPEPVTVSWNSGALTSGVHTFPAVLQSSGLYSLSSVVTVPSSSLGTQTYICNVNHKPSNTKVDKKV[here human IgG1 Fc with changes without letters]GGGGSGGGGSGGGGSDVKLVESGGDLVKPGGSLKLSCAASGFTFSSYSMSWVRQTPEKRLEWVATITSGGSYTYFPDSVKGRFTISRDNAKNTLYLQVSNLKSEDTAMYYCTRGPSFGNYLDYWGQGTTLTVSSGGSEGKSSGSGSESKSTGGSDILMTQSPSSMSASLGDTVSITCHASQGISSNIGWLQQKPGKSFKGLIYRGTNLEDGVPSRFSGSGSGADYSLTISSLESEDFADYYCVQYAHFPYTFGGGTKLEIK
heavy 2: EVRLLESGGGLVQPGGSLRLSCAASGFTFSNYAMGWVRQAPGKGLEWVSAISGSGGSTYYADSVKGRFTTSRDDSKNALYLQMNSLRAEDTAVYYCARGGPGWYAADVWGQGTTVTVSS[here human IgG1 constant region with changes without letters]
light: DIQMTQSPSSLSASVGDRVTITCRASQSISSYLNWYQQKPGKAPKLLIYAASSLQSGVPSRFSGSGSGTDFTLTISSLQPEDFATYYCQQADLPAFAFGGGTKVEIKRTVAAPSVFIFPPSDEQLKSGTASVVCLLNNFYPREAKVQWKVDNALQSGNSQESVTEQDSKDSTYSLSSTLTLSKADYEKHKVYACEVTHQGLSSPVTKSFNRGEC
B3: the “MFI ratio CHO huCD98/CHO parental” value in experiment [1] worked out at 24. Besides, the “MFI ratio HCMEC/2nd ab only” value in experiment [2] is 403.

B4: CD98hc.05.081 (2+1 bispecific antibody) (bispecific antibody)
heavy 1: EVRLLESGGGLVQPGGSLRLSCAASGFTFSNYAMGWVRQAPGKGLEWVSAISGSGGSTYYADSVKGRFTTSRDDSKNALYLQMNSLRAEDTAVYYCARGGPGWYAADVWGQGTTVTVSSASTKGPSVFPLAPSSKSTSGGTAALGCLVKDYFPEPVTVSWNSGALTSGVHTFPAVLQSSGLYSLSSVVTVPSSSLGTQTYICNVNHKPSNTKVDKKV[here human IgG1 Fc with changes without letters]GGGGSGGGGSGGGGSEVQLQQSRPELVKPGASVKMSCKASGYTFTSYVMHWVKQKPGQGLEWIGYISPYNGDTKYNEKFKGKATLTSDISSTTAYMELSSLTSEDSGVYYCARPGSSPSWFAYWGQGTLVTVSSGGSEGKSSGSGSESKSTGGSDIVMTQFPATLSVTPGDRVSLSCRASQSISNYLHWYQQKSHESPRLLIKYASQSISGIPSRFSGSGSGSDFTLSINSVEPEDVGVYYCQNGHSFPYMYTFGGGTKLEIK
heavy 2: EVRLLESGGGLVQPGGSLRLSCAASGFTFSNYAMGWVRQAPGKGLEWVSAISGSGGSTYYADSVKGRFTTSRDDSKNALYLQMNSLRAEDTAVYYCARGGPGWYAADVWGQGTTVTVSS[here human IgG1 constant region with changes without letters]
light: DIQMTQSPSSLSASVGDRVTITCRASQSISSYLNWYQQKPGKAPKLLIYAASSLQSGVPSRFSGSGSGTDFTLTISSLQPEDFATYYCQQADLPAFAFGGGTKVEIKRTVAAPSVFIFPPSDEQLKSGTASVVCLLNNFYPREAKVQWKVDNALQSGNSQESVTEQDSKDSTYSLSSTLTLSKADYEKHKVYACEVTHQGLSSPVTKSFNRGEC
As for B4, in experiment [1], the “MFI ratio CHO huCD98/CHO parental” value came to 8. In experiment [2], the “MFI ratio HCMEC/2nd ab only” value worked out at 136.

B5: CD98hc.05.126 (2+1 bispecific antibody) (bispecific antibody)
heavy 1: EVRLLESGGGLVQPGGSLRLSCAASGFTFSNYAMGWVRQAPGKGLEWVSAISGSGGSTYYADSVKGRFTTSRDDSKNALYLQMNSLRAEDTAVYYCARGGPGWYAADVWGQGTTVTVSSASTKGPSVFPLAPSSKSTSGGTAALGCLVKDYFPEPVTVSWNSGALTSGVHTFPAVLQSSGLYSLSSVVTVPSSSLGTQTYICNVNHKPSNTKVDKKV[here human IgG1 Fc with changes without letters]GGGGSGGGGSGGGGSEVKLVESGGNLVQPGGSLKLSCAASGFTFSGYPMSWVRRTPDKRLEWVAYIGSGGDSTYYPYAVKGRFTISRDNAKNTLYLQMNSLKSEDSAMYYCARQYDNYPFFDYWGQGTTLTVSSGGSEGKSSGSGSESKSTGGSDFVMSQSPSSLTVSVGAKVIMSCKSSQSLLYSGNQKNYLAWYQQKPGQSPKLLIYWASTRESGVPDRFTGSGSGTDFTLTISSVKAEDLAVYYCQQYYTYPPTFGAGTKLEIK
heavy 2: EVRLLESGGGLVQPGGSLRLSCAASGFTFSNYAMGWVRQAPGKGLEWVSAISGSGGSTYYADSVKGRFTTSRDDSKNALYLQMNSLRAEDTAVYYCARGGPGWYAADVWGQGTTVTVSS[here human IgG1 constant region with changes without letters]
light: DIQMTQSPSSLSASVGDRVTITCRASQSISSYLNWYQQKPGKAPKLLIYAASSLQSGVPSRFSGSGSGTDFTLTISSLQPEDFATYYCQQADLPAFAFGGGTKVEIKRTVAAPSVFIFPPSDEQLKSGTASVVCLLNNFYPREAKVQWKVDNALQSGNSQESVTEQDSKDSTYSLSSTLTLSKADYEKHKVYACEVTHQGLSSPVTKSFNRGEC
Consider B5, for which the “MFI ratio CHO huCD98/CHO parental” value in experiment [1] stood at 30. In experiment [2], the “MFI ratio HCMEC/2nd ab only” value worked out at 316.
